The campaign covered roughly 48,000 compounds. About 550 (1.1%) were called active. About 4% were inconclusive and are not listed. Rule as the data show it: active = potency below about 15 µM; inconclusive = mostly about 16 µM to 33 µM; inactive = weaker than that. The list shows a part of the results.
molecular target: Lysosomal acid glucosylceramidase (Homo sapiens) (UniProt P04062); experiment: Glucocerebrosidase; details: purified enzyme, resorufin glucoside fluorescence (screen aimed at inhibitors), 20 min;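 also: the screen sought inhibitors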
Procedure, shortened: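 Normal human glucocerebrosidase (0.2 nM final) was assayed with resorufin β-D-glucopyranoside (30 uM final) in 50mM citric acid/KH2PO4, 10mM sodium taurocholate, 0.01% tween-20, pH 5.9. Compounds were titrated; fluorescence (Ex 548, Em 600) read after 20 min at RT.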
Potency is read from the fitted curve at half-maximal effect.

Sequence of UniProt P04062 (P04062 whole entry, looked up): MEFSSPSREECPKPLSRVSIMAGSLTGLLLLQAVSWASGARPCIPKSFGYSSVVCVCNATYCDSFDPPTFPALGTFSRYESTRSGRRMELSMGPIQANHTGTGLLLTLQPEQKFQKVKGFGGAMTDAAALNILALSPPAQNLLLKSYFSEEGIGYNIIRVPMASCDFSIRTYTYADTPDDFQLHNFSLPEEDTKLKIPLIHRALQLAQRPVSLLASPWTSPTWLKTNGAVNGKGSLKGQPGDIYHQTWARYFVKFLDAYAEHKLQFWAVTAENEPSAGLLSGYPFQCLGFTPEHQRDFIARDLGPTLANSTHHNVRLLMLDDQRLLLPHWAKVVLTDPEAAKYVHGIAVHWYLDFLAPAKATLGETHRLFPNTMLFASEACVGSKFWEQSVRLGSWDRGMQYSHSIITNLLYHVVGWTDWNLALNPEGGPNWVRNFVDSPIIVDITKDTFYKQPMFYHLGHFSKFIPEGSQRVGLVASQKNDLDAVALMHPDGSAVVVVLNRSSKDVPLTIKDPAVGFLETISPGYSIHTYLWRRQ

Potency, inactive:
Cc1ccccc1OCC(O)Cn1c(NCc2ccco2)nc2c1c(=O)[nH]c(=O)n2C (configuration not stated) > 76.9 µM
COc1ccc(C2C(C(C)=O)=C(O)C(=O)N2CCO)c(OC)c1 (configuration not stated) > 76.9 µM
CCCn1nnc(NC(=O)Cc2ccc(Cl)cc2)n1 > 76.9 µM
c1ccc(-c2nn3c(-c4ccncc4)nnc3s2)nc1 > 76.9 µM
O=C(NCc1ccccn1)NC12CC3CC(CC(C3)C1)C2 > 76.9 µM
O=C1OCCC1Sc1nnc(-c2cccs2)n1Cc1ccccc1 (configuration not stated) > 76.9 µM
COc1ccc(CCN2CNc3c(c(=O)n(C)c(=O)n3C)C2)cc1OC > 76.9 µM
CCC(=O)N1CCN(C(C)=O)C1c1ccccc1 (configuration not stated) > 76.9 µM
CCCn1c(CNC(=O)Cc2ccccc2)nc2ccccc21 > 76.9 µM
CCOC(=O)c1nnn(-c2nc(OC)nc(N(C)C)n2)c1-c1ccccc1 > 76.9 µM
CCN1CCN(S(=O)(=O)Cc2ccccc2)CC1 > 76.9 µM
COc1cccc(C(=O)N(Cc2ccc(N(C)C)cc2)C2CCS(=O)(=O)C2)c1 (configuration not stated) > 76.9 µM
Cn1c(=O)[nH]c(=O)c2c1nc(CN(Cc1ccccc1)Cc1ccccc1)n2CCN1CCOCC1 > 76.9 µM
c1coc(-c2ncc[nH]2)c1 > 76.9 µM
COc1cccc(OC)c1C(=O)Nc1ccccc1N1CCCC1 > 76.9 µM
CCN(CC)CCN1C(=O)C(=O)/C(=C(/O)c2ccc(OC)c(OC)c2)C1c1ccccn1 (configuration not stated) > 76.9 µM
Cc1cccc(-c2nnc3sc(-c4ccccc4C)nn23)c1 > 76.9 µM
CC(=O)C(C(C)=O)C(NC(=O)c1cccnc1)(C(F)(F)F)C(F)(F)F > 76.9 µM
O=C(c1ccco1)N1CCN(S(=O)(=O)c2cccc3nsnc23)CC1 > 76.9 µM
CCn1c(SCC(=O)Nc2ccc3c(c2)OCO3)nnc1-c1cnccn1 > 76.9 µM
CC(C)OC(=O)C1C(=O)CC(C)(O)C(C(=O)OC(C)C)C1c1cccc(O)c1 (configuration not stated) > 76.9 µM
Fc1ccc(Cn2nnnc2CN2CCc3ccccc3C2)cc1 > 76.9 µM
CCS(=O)(=O)N1CCCC(C(=O)NCCCOC(C)C)C1 (configuration not stated) > 76.9 µM
COc1cc(-c2nnc(CSc3nnc4nc(C)cc(C)n34)o2)cc(OC)c1OC > 76.9 µM
CC(=O)Nc1ccc(NS(=O)(=O)c2ccc(Cl)c(C(=O)O)c2)cc1 > 76.9 µM
N#CC1=C(N)Oc2n[nH]c(-c3cccs3)c2C1c1ccco1 (configuration not stated) > 76.9 µM
COc1ccc(S(=O)(=O)N(C)CC(=O)N2CCOCC2)cc1Cl > 76.9 µM
O=C(NC1CCCCC1)N1CCC(c2nc3ccccc3[nH]2)CC1 > 76.9 µM
CCCSc1nc2c(c(=O)n(C)c(=O)n2C)n1Cc1ccc(C)cc1 > 76.9 µM
CN1CCN(C(=O)c2cnn3c(C(F)F)cc(C4CC4)nc23)CC1 > 76.9 µM
Cc1cnc(C(=O)OCC(=O)c2csc(N3CCCCC3)n2)cn1 > 76.9 µM
CCC(=O)Nc1ccc(-c2nn3c(C)nnc3s2)cc1C > 76.9 µM
CCC(C)(C)n1nnnc1C(c1cccs1)N1CCN(Cc2ccccc2)CC1 (configuration not stated) > 76.9 µM
CCC(CC)C(=O)Nc1cccc(C(=O)N2CCCCCC2)c1 > 76.9 µM
COc1ccc(CNC(=O)COC(=O)c2n[nH]c3ccccc23)cc1OC > 76.9 µM
Cc1cc(C)c(NC2=CC(=O)CC(C)(C)C2)c(C#N)c1 > 76.9 µM
COc1ccc(CCNC(=O)Cn2cnc3c2c(=O)n(C)c(=O)n3C)cc1OC > 76.9 µM
CN1C(=O)c2ccc(S(=O)(=O)c3ccc(C(=O)O)cc3)cc2C1=O > 76.9 µM
Nc1nnnn1/N=C/c1ccccc1C(F)(F)F > 76.9 µM
CC1Cc2ccccc2N1C(=O)CSc1nc2cc3c(cc2cc1C#N)OCO3 (configuration not stated) > 76.9 µM
CCOc1ccc(-n2c(SCC(=O)NCc3ccco3)nc3c(c2=O)SCC3)cc1 > 76.9 µM
CCOC(=O)/C=C1\SCC(=O)N1CC(O)CN1C(=O)CS/C1=C\C(=O)OCC > 76.9 µM
O=c1nc2scc(-c3ccccc3)n2c2ccccc12 > 76.9 µM
CCOc1ccccc1N1C(=O)CC(Sc2ncccc2C(=O)O)C1=O (configuration not stated) > 76.9 µM
CCCCCCC(C)n1[nH]c(=O)c2c(C)cc(=O)[nH]c21 (configuration not stated) > 76.9 µM
CCCn1c(SCC(=O)NCCc2ccccc2)nnc1-c1ccccn1 > 76.9 µM
FC(F)(F)c1cnc2c(c1)Nc1ccccc1S2 > 76.9 µM
CCOC(=O)C1=C(C)NC(=O)NC1c1c(OCC(=O)N2CCCCC2)ccc2ccccc12 (configuration not stated) > 76.9 µM
CCC(=O)N1CC2(C)CN(C(=O)CC)CC(C)(C1)C2 > 76.9 µM
COc1ccc(Cn2nnnc2C(C(C)C)N(Cc2ccco2)Cc2cccs2)cc1 (configuration not stated) > 76.9 µM
Cc1ccc2cc3c(NC(=O)C(C)C)nn(C)c3nc2c1 > 76.9 µM
Cc1ccc(CN2C(=O)CCC2C(=O)NCC2CCCO2)cc1 (configuration not stated) > 76.9 µM
Cc1ccc2cccc(NC(=O)C(F)(F)F)c2n1 > 76.9 µM
c1ccc2c(c1)nc1n2C2(N3CCOCC3)CCCC2C1N1CCOCC1 (configuration not stated) > 76.9 µM
CCc1ccc(NC2CC(=O)N(c3ccc(OC)cc3OC)C2=O)cc1 (configuration not stated) > 76.9 µM
Cc1ccnc(NC(=O)CCC2COc3ccccc3O2)c1 (configuration not stated) > 76.9 µM
CS(=O)(=O)N1CCCC(C(=O)NCCCN2CCc3ccccc3C2)C1 (configuration not stated) > 76.9 µM
CC1CC(C)CN(CCCNC(=O)C2CCCN(c3nnc(N4CCCC4=O)s3)C2)C1 (configuration not stated) > 76.9 µM
CCc1nc(Nc2ccncc2)c2oc3ccccc3c2n1 > 76.9 µM
CCc1ccccc1-n1c(SCC(=O)NC)nnc1-c1cccnc1 > 76.9 µM
CC1CCN(C(=O)CSc2ccc(-c3ccc(F)cc3)nn2)CC1 > 76.9 µM
O=C(OCC1CC(c2ccccn2)=NO1)c1ccc(Br)cc1 (configuration not stated) > 76.9 µM
Cc1ccc(-c2noc(CCC(=O)NCCN3CCN(Cc4ccccc4)CC3)n2)cc1 > 76.9 µM
CN1CCCC(OC(=O)CCCC(=O)OC2CCCN(C)C2)C1 (configuration not stated) > 76.9 µM
Cn1c(=O)n(Cc2ccccc2)c(=O)c2c1nc1n2CCCN1Cc1ccccc1 > 76.9 µM
O=C1N(c2ccc(Cl)c(Cl)c2)CN(Cc2ccccc2)CN1n1cnnc1 > 76.9 µM
CC1CCN(C(=O)N[C@@H](Cc2ccccc2)C(=O)O)CC1 > 76.9 µM
CCSC(=Nc1ccccc1)C1=C(O)COC1=O > 76.9 µM
CCOc1cc2[nH]c(=O)n(CC3CCC(C(=O)NCCC(C)C)CC3)c(=O)c2cc1OCC (configuration not stated) > 76.9 µM
CN1CCN(Cc2cc(=O)oc3ccc(Cl)cc23)CC1 > 76.9 µM
CS(=O)(=O)c1ccc(N2CCOCC2)c(S(C)(=O)=O)c1 > 76.9 µM
Cc1ccc(Nc2nc(N)nc(CN3CCN(C)CC3)n2)cc1C > 76.9 µM
CCOC(=O)c1[nH]c(C)c(C(=O)OCc2c(C)noc2C)c1C > 76.9 µM
CCn1c(SCC(=O)NCC2CCCO2)nnc1-c1c[nH]c2ccccc12 (configuration not stated) > 76.9 µM
CCCC(c1nnnn1Cc1ccco1)N1CCN(c2cc(Cl)ccc2C)CC1 (configuration not stated) > 76.9 µM
O=C(NC1CCCCCC1)C1c2ccccc2C(=O)N1CCCN1CCOCC1 (configuration not stated) > 76.9 µM
O=C(c1ccc(NS(=O)(=O)c2ccccc2)cc1)N1CCCC1 > 76.9 µM
COC(=O)Oc1nsnc1N1CCOCC1 > 76.9 µM
COC(=O)c1ccc(NC(=O)CSc2nncn2C)cc1 > 76.9 µM
CCCCn1cc(SCC(=O)O)c2ccccc21 > 76.9 µM
CCCNC(=O)NC(=O)CSc1nc2ccccc2n1CC(C)C > 76.9 µM
CCSc1nnc(NC(=O)CSc2nnc(Cc3cccn3C)n2-c2ccc(C)cc2)s1 > 76.9 µM
CCN(CC)C(=O)CSc1nc2cc3c(cc2c(=O)n1Cc1ccc2c(c1)OCO2)OCO3 > 76.9 µM
CCCc1ncc(C(=O)c2ccc(OC)cc2)n1C > 76.9 µM
CC1=CC(C)C2C(=O)N(CCCN(C)C)C(=O)C2C1 (configuration not stated) > 76.9 µM
Cc1ccc(S(=O)(=O)CC2CSc3nc(N)cc(=O)n32)cc1 (configuration not stated) > 76.9 µM
Cc1cccc(NC(=O)c2cc(S(=O)(=O)NCc3ccco3)ccc2F)c1C > 76.9 µM
O=c1cnn(-c2ccccc2)c(-c2ccccc2)c1 > 76.9 µM
CCCn1cc(SCC(=O)NCc2ccco2)c2ccccc21 > 76.9 µM
Cc1cc(C)c(C#N)c(N2CCSCC2)n1 > 76.9 µM
Cc1cc(C)nc(N(C#N)CCOc2ccccc2)n1 > 76.9 µM
O=C(NCC1CCCO1)c1ccc(N2CCCCC2)nc1 (configuration not stated) > 76.9 µM
